# Hit rate of the full screen: of about 410,000 compounds, about 6,400 (1.6%) were called active. This list was built around the results that the source calls inconclusive (neither active nor inactive); the mix of calls is not that of the screen. Calls follow the shape of the dose curve; as a rule, active = well fitted inhibition curve with a large enough effect; inconclusive = small, poorly fitted or top-dose-only effect; inactive = no such curve, though single readings can be large or run the other way. No potency is given beside an inconclusive call; the fits are too rough.
# Biological target: Glucagon-like peptide 1 receptor (Homo sapiens) (UniProt P43220)
# UniProt P43220, sequence (P43220 whole entry, looked up): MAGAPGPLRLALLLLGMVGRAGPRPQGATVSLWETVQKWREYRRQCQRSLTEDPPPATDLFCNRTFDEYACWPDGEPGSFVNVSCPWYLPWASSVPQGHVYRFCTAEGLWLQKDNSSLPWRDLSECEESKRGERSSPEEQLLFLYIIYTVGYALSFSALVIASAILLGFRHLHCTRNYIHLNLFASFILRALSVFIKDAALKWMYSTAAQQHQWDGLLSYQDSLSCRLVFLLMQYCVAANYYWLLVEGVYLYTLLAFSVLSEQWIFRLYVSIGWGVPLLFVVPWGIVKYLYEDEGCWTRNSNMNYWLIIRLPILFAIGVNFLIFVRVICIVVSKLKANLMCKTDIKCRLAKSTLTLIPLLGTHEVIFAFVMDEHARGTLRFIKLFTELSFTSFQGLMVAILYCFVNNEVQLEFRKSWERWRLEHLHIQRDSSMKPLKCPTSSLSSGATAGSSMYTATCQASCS
# Assay: qHTS of GLP-1 Receptor Inverse Agonists (Inhibition Mode); also: nearly all actives have a fitted effect of over 55% in size
# Conditions: HEK293 GLP-1R CRE-luciferase, luminescence, 24 h, GLP-1R form is constitutively active; activity change, negative = inhibition: at 38.3 µM (top of the series) unless noted
# Procedure, shortened: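 HEK293 cells stably co-expressing constitutively active GLP-1R and a cAMP-responsive luciferase reporter were seeded in DMEM with 10% Nu serum, given compounds after 12 h, and incubated 24 h at 37 deg C. Luminescence was then read.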
# % is scaled to controls: 0 for no effect and ±100 for the full control effect; potency is read from the fitted curve at half-maximal effect; tags tell the direction and shape of the fitted curve.
Structure (SMILES),Potency,"activity change, negative = inhibition"
CCN(CC)C(=O)c1cccc(-c2csc(C(C)(O)c3cccc(OC)c3)n2)c1 (stereo not given),"inconclusive [inhibitor, partial curve, poor fit]",
C=CCn1c(SCC(=O)NNC(=O)Nc2cccc(Cl)c2)nnc1-c1ccccc1,"inconclusive [inhibitor, partial curve, poor fit]",
C=CCC[C@@H](Cc1ccc(F)cc1)C(=O)OC[C@H](Cc1c[nH]c2ccccc12)NC(=O)[C@@H](CC=C)CC(=O)N[C@H](CO)Cc1ccccc1,,inactive: -36%
O=C(c1ccc(CS(=O)(=O)c2ccc(Br)cc2)o1)N1CCCCCC1,"inconclusive [inhibitor, partial curve, poor fit]",
Cc1ccc(NC(=O)c2nc(-c3ccncc3)no2)c(Cl)c1,,inactive: -4.36%
Cc1ccc(NC(=O)COC(=O)c2c[nH]c3ccccc23)cc1C,"inconclusive [inhibitor, single point]",
CCCCN(CC)CCCNC(=O)c1cn(CC)c2ccc(S(=O)(=O)N3CCOCC3)cc2c1=O,,inactive: -25.2%
CCOc1ccc(-c2noc(-c3cccnc3)n2)cc1OC,,inactive: 64.8%
O=c1c2cnn(-c3ccccc3)c2nc(-c2cccs2)n1-c1cccc(Cl)c1,active: 8.91 µM,
CCc1sc(C(=O)Nc2ccc(N3CCOCC3)cc2)cc1C,"inconclusive [inhibitor, partial curve, poor fit]",
O=C(c1ccccc1)N1CCN(Cc2ccc3c(c2)OCO3)CC1,,inactive: -13.1%
Cc1ccc(C(C)C)c(OCc2nnc3n2CCCCC3)c1,"inconclusive [inhibitor, single point]",
Cc1ccc(CNCc2cc3c(C(C)(C)C)nn(-c4ccccc4)c3[nH]c2=O)cc1,"inconclusive [inhibitor, single point]",
CCOC(=O)c1nn(-c2ccccc2F)c(-c2ccccc2)c1C(=O)c1ccccc1,"inconclusive [inhibitor, partial curve, poor fit]",
Cc1cc2ccccc2n1CCNC(=O)c1ccc(S(=O)(=O)N2CCOCC2)cc1,,inactive: -26%
C/C(CCc1oc2ccccc2c1-c1ccc(C)o1)=N/O,"inconclusive [inhibitor, partial curve, poor fit]",
COc1ccccc1NC(=O)c1cc(S(=O)(=O)NC2CCCC2)ccc1F,"inconclusive [inhibitor, partial curve, poor fit]",
Cc1cccc(NC(=O)CSc2ncnc3sc(C)cc23)c1,"inconclusive [inhibitor, single point]",
O=C1c2ccccc2C(=O)N1CCCCN(C(=O)c1cc([N+](=O)[O-])ccc1Cl)c1ccc(Cl)cc1,"inconclusive [inhibitor, single point]",
CC(=O)c1ccc(NC(=O)CSc2nccn2Cc2ccc3c(c2)OCO3)cc1,,inactive: 5.87%

Structure (SMILES),Potency,"activity change, negative = inhibition"
CN(CC(=O)Nc1cccc(F)c1)CC(=O)Nc1cccc(S(=O)(=O)N2CCCCC2)c1,active: 7.94 µM,
N#C/C(=C/c1ccc(Cl)cc1)NC(=O)c1ccccc1,"inconclusive [inhibitor, single point]",
Cc1nnc(C)n1/N=C/c1cc(Br)cc(Br)c1O,"inconclusive [inhibitor, single point]",
CC(C)C(C(=O)N1CCN(Cc2ccccc2)CC1)c1ccccc1 (stereo not given),,inconclusive: -63.2% [inhibitor]
COC(c1ccccc1)c1nnc(CCC(=O)N(C)Cc2cccc(-n3cccn3)c2)o1 (stereo not given),,inactive: -22.7%
O=C(O)c1ccc(N=Nc2c(O)ccc3ncccc23)cc1,"inconclusive [inhibitor, single point]",
COc1ccc(OC)c(CCNC(=O)c2ccc3c(c2)N(Cc2ccc(F)cc2)CCS3)c1,"inconclusive [inhibitor, partial curve, poor fit]",
COC(=O)c1ccc(NC(=S)NCCc2ccc(OC)cc2)cc1,"inconclusive [inhibitor, single point]",
Cc1ccc(NC2=C(Cl)C(=O)OC2OC(=O)c2ccccc2C)cc1 (stereo not given),"inconclusive [inhibitor, partial curve, poor fit]",
O=C(COc1ccc(Cl)cc1)NCCc1csc(-c2cccc(F)c2)n1,"inconclusive [inhibitor, single point]",
FC(F)(F)c1cc(CCN2CCNC[C@H]2Cc2cccc3ccccc23)cc(C(F)(F)F)c1,"inconclusive [inhibitor, partial curve, poor fit]",
CCCN1C(C(=O)c2ccccc2)=C(OC(=O)c2ccc(C)cc2)c2ccccc2S1(=O)=O,"inconclusive [inhibitor, partial curve, poor fit]",
COc1c(C(=O)NCCSC(C)(C)C)ccc2ccccc12,"inconclusive [inhibitor, single point]",
C(=C\c1ccccc1)/CN1CCN(C(c2nnnn2-c2ccc3c(c2)OCCO3)C2CC2)CC1 (stereo not given),"inconclusive [inhibitor, single point]",
CCC1=C(OC(=O)N(CC)CC)N2C(=O)OC(=NCCc3c[nH]c4ccccc34)[C@]2(Cc2ccccc2)[C@H]2C1=CC[C@H]1C(=O)N(C)C(=O)[C@H]12,"inconclusive [inhibitor, single point]",
CCN(CC(=O)Nc1cc(Cl)ccc1C)C(=O)CCS(=O)(=O)c1ccc(C)cc1,"inconclusive [inhibitor, partial curve, poor fit]",
O=C(CSc1nc2ccccc2o1)Nc1nc2ccccc2s1,,inactive: -4.03%
COc1ccc(CCc2nc(-c3cccs3)no2)cc1,"inconclusive [inhibitor, single point]",
CC1CC(C)CN(C(=S)Nc2ccc(SC(F)F)cc2)C1 (stereo not given),"inconclusive [inhibitor, partial curve, poor fit]",
O=C(Cc1ccc(F)cc1)Nc1ccccc1Sc1ccccc1,"inconclusive [inhibitor, single point]",
